Source: a protein production outcome set (Wang et al. 2014)

Test: label from the status in PepcDB records

Sequence	protein production
MFVSHLSFPHLIEERKMKLSTLALAPITAALLTFNASAKGHDHDNQRAIFFPGETVQDTVKVEVEPSATQSLKLGQKINNLYERQFDNSQATVQKLGKNTYWIGVNYYNATVVVNEDSVLLIDPLGDGRIDALFKGVQSITNKPITTIMYSHYHLDHLGGGNQLVDLIKKNYPKVDKIRVIASQTVADKINQHAEVGENGVKTPKVPAPNDIYDLTKPQTVQFGSMKIKMMAPKGSGHTPDNTMILIPSDRVLHFADMINPDQLPFYNFAGAEHFHGYEEDLQSLLSKPLSKQWDFINGGHGNIGSKQDVKDLLEYIADIRTEVGKQLEVAPYTPVLSDGNHFVWFKRWQDEITNNVHTALANKYGHMYGFDSGVVETHAAMILADMIDH	failed
MGSASEQRVTLTNADKVLYPATGTTKSDIFDYYAGVAEVMLGHIAGRPATRKRWPNGVDQPAFFEKQLALSAPPWLSRATVAHRSGTTTYPIIDSATGLAWIAQQAALEVHVPQWRFVAEPGSGELNPGPATRLVFDLDPGEGVMMAQLAEVARAVRDLLADIGLVTFPVTSGSKGLHLYTPLDEPVSSRGATVLAKRVAQRLEQAMPALVTSTMTKSLRAGKVFVDWSQNSGSKTTIAPYSLRGRTHPTVAAPRTWAELDDPALRQLSYDEVLTRIARDGDLLERLDADAPVADRLTRYRRMRDASKTPEPIPTAKPVTGDGNTFVIQEHHARRPHYDFRLECDGVLVSWAVPKNLPDNTSVNHLAIHTEDHPLEYATFEGAIPSGEYGAGKVIIWDSGTYDTEKFHDDPHTGEVIVNLHGGRISGRYALIRTNGDRWLAHRLKNQKDQKVFEFDNLAPMLATHGTVAGLKASQWAFEGKWDGYRLLVEADHGAVRLRSRSGRDVTAEYPQLRALAEDLADHHVVLDGEAVVLDSSGVPSFSQMQNRGRDTRVEFWAFDLLYLDGRALLGTRYQDRRKLLETLANATSLTVPELLPGDGAQAFACSRKHGWEGVIAKRRDSRYQPGRRCASWVKDKHWNTQEVVIGGWRAGEGGRSSGVGSLLMGIPGPGGLQFAGRVGTGLSERELANLKEMLAPLHTDESPFDVPLPARDAKGITYVKPALVAEVRYSEWTPEGRLRQSSWRGLRPDKKPSEVVRE	not failed
MGSASEQRVTLTNADKVLYPATGTTKSDIFDYYAGVAEVMLGHIAGRPATRKRWPNGVDQPAFFEKQLALSAPPWLSRATVAHRSGTTTYPIIDSATGLAWIAQQAALEVHVPQWRFVAEPGSGELNPGPATRLVFDLDPGEGVMMAQLAEVARAVRDLLADIGLVTFPVTSGSKGLHLYTPLDEPVSSRGATVLAKRVAQRLEQAMPALVTSTMTKSLRAGKVFVDWSQNSGSKTTIAPYSLRGRTHPTVAAPRTWAELDDPALRQLSYDEVLTRIARDGDLLERLDADAPVADRLTRYRRMRDASKTPEPIPTAKPVTGDGNTFVIQEHHARRPHYDFRLERDGVLVSWAVPKNLPDNTSVNHLAIHTEDHPLEYATFEGAIPSGEYGAGKVIIWDSGTYDTEKFHDDPHTGEVIVNLHGGRISGRYALIRTNGDRWLAHRLKNQKDQKVFEFDNLAPMLATHGTVAGLKASQWAFEGKWDGYRLLVEADHGAVRLRSRSGRDVTAEYPQLRALAEDLADHHVVLDGEAVVLDSSGVPSFSQMQNRGRDTRVEFWAFDLLYLDGRALLGTRYQDRRKLLETLANATSLTVPELLPGDGAQAFACSRKHGWEGVIAKRRDSRYQPGRRCASWVKDKHWNTQEVVIGGWRAGEGGRSSGVGSLLMGIPGPGGLQFAGRVGTGLSERELANLKEMLAPLHTDESPFDVPLPARDAKGITYVKPALVAEVRYSEWTPEGRLRQSSWRGLRPDKKPSEVVRE	failed
MLPPGSNGTAYPGQFALYQQLAQGNAVGGSAGAPPLGPSQVVTACLLTLLIIWTLLGNVLVCAAIVRSRHLRANMTNVFIVSLAVSDLFVALLVMPWKAVAEVAGYWPFGAFCDVWVAFDIMCSTASILNLCVISVDRYWAISRPFRYKRKMTQRMALVMVGLAWTLSILISFIPVQLNWHRDQAASWGGLDLPNNLANWTPWEEDFWEPDVNAENCDSSLNRTYAISSSLISFYIPVAIMIVTYTRIYRIAQVQIRRISSLERAAEHAQSCRSSAACAPDTSLRASIKKETKVLKTLSVIMGVFVCCWLPFFILNCMVPFCSGHPEGPPAGFPCVSETTFDVFVWFGWANSSLNPVIYAFNADFQKVFAQLLGCSHFCSRTPVETVNISNELISYNQDIVFHKEIAAAYIHMMPNAVTPGNREVDNDEEEGPFDRMFQIYQTSPDGDPVAESVWELDCEGEISLDKITPFTPNGFH	failed
MMENYKHTTVLLDEAVNGLNIRPDGIYIDGTFGRGGHSRLILSQLGEEGRLLAIDRDPQAIAVAKTIDDPRFSIIHGPFSALGEYVAERDLIGKIDGILLDLGVSSPQLDDAERGFSFMRDGPLDMRMDPTRGQSAAEWLQTAEEADIAWVLKTYGEERFAKRIARAIVERNREQPMTRTKELAEVVAAATPVKDKFKHPATRTFQAVRIWVNSELEEIEQALKSSLNVLAPGGRLSIISFHSLEDRIVKRFMRENSRGPQVPAGLPMTEEQLKKLGGRQLRALGKLMPGEEEVAENPRARSSVLRIAERTNA	not failed
MNGVSEGTRGCSDRQPGVLTRDRSCSRKMNSSGCLSEEVGSLRPLTVVILSASIVVGVLGNGLVLWMTVFRMARTVSTVCFFHLALADFMLSLSLPIAMYYIVSRQWLLGEWACKLYITFVFLSYFASNCLLVFISVDRCISVLYPVWALNHRTVQRASWLAFGVWLLAAALCSAHLKFRTTRKWNGCTHCYLAFNSDNETAQIWIEGVVEGHIIGTIGHFLLGFLGPLAIIGTCAHLIRAKLLREGWVHANRPKRLLLVLVSAFFIFWSPFNVVLLVHLWRRVMLKEIYHPRMLLILQASFALGCVNSSLNPFLYVFVGRDFQEKFFQSLTSALARAFGEEEFLSSCPRGNAPRE	failed
